The supplement of paper PMC10126150
Values marked as one replicate rest on one cluster of the flow cell; about a third of the high ones do not repeat.

System: ATP
Assay: switch fluorescence ratio, 500 uM ATP over buffer (Cy3 cluster intensity, sum of 5 cycles each) (fold (ratio)); higher = stronger signal-on switching upon ATP binding; sequences stand for … in TCGTCGGCAGCGTCAGATGTGTATAAGAGACAGTTTTTTTTTTTTTTTTTTTTTTTTT…TC
Settings: aptamer strand: ATP DNA aptamer (quencher-CACCTGGGGGAGTATTGCGGAGGAAGG + anchor), 100 nM annealed; ATP concentration: 500 uM; one replicate
Outline: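 Exposure to 500 uM ATP lasted 15 min at 22 °C before imaging, and a selection-buffer image was taken beforehand, for Cy3-labelled switching-strand clusters on a modified Illumina MiSeq flow-cell annealed to 100 nM quencher-labelled ATP aptamer. Five buffer/ATP cycles were run with NaOH stripping and re-annealing between them. The fluorescence ratio per cluster is summed target-cycle over summed buffer-cycle Cy3 intensity, averaged per switch-domain sequence. Clusters outside 100-1000 RFU were excluded.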

Row | Sequence | switch fluorescence ratio
1 | TTCCATCC | 1.1
2 | TTCCATGGAC | 1.04
3 | TTCCCATCTT | 0.996
4 | TTCCCATGAG | 0.976
5 | TTCCCATGTG | 1.78
6 | TTCCCATTCT | 1.05
7 | TTCCCGGACA | 1.02
8 | TTCCCGTAGG | 1.02
9 | TTCCCTACGC | 2.41
10 | TTCCCTTGGG | 1.07
11 | TTCCGAATGC | 2.81
12 | TTCCGATAT | 2.98
13 | TTCCGCCAAA | 2.36
14 | TTCCGCCCTT | 4.96
15 | TTCCGCGGGT | 0.96
16 | TTCCGTTCGT | 0.981
17 | TTCCTAATAG | 1.09
18 | TTCCTAGCGA | 1.15
19 | TTCCTCGGTC | 1.49
20 | TTCCTGAGCC | 1.3
21 | TTCCTGGGAT | 0.98
22 | TTCCTGGTAT | 1.03
23 | TTCCTTGAAT | 1.02
24 | TTCCTTGACG | 0.975
25 | TTCCTTTGTC | 1.09
26 | TTCGAAGCG | 1.01

Row | Sequence | switch fluorescence ratio
27 | TTCGACGGTG | 1.02
28 | TTCGAGTCAG | 0.992
29 | TTCGAGTTGC | 1.01
30 | TTCGATGAGT | 0.964
31 | TTCGATGATC | 0.977
32 | TTCGCAAGCT | 1.43
33 | TTCGCAGCAT | 6.42
34 | TTCGCCAGTT | 0.998
35 | TTCGCCTTAA | 0.994
36 | TTCGCGGGAG | 0.978
37 | TTCGCGTTC | 1.08
38 | TTCGCTATCT | 2.16
39 | TTCGCTGACC | 1.32
40 | TTCGCTGCAG | 1.04
41 | TTCGCTTAAT | 1.1
42 | TTCGCTTAG | 1.06
43 | TTCGGAATGG | 1.11
44 | TTCGGATCCT | 1.02
45 | TTCGGCATTT | 0.993
46 | TTCGGCCTTG | 1.02
47 | TTCGGCGC | 1.03
48 | TTCGGCTATT | 0.999
49 | TTCGGCTTG | 0.996
50 | TTCGGGATTC | 1.8
51 | TTCGGGGCT | 0.992
52 | TTCGGGGT | 0.999

Row | Sequence | switch fluorescence ratio
53 | TTCGTAAATT | 1.02
54 | TTCGTATA | 1.01
55 | TTCGTCCACC | 1.01
56 | TTCGTCGCGC | 1.06
57 | TTCGTGGCTG | 0.987
58 | TTCGTTCAGA | 1
59 | TTCTAAGCAT | 1.21
60 | TTCTACCCGG | 1.07
61 | TTCTACGCGC | 2.62
62 | TTCTAGTGGA | 0.967
63 | TTCTATCTTG | 0.962
64 | TTCTATTGGG | 0.993
65 | TTCTCAATTT | 1.12
66 | TTCTCACCTA | 1.06
67 | TTCTCAGCAG | 1.93
68 | TTCTCAGTGC | 1.52
69 | TTCTCGAGAC | 0.99
70 | TTCTCGCCGT | 0.954
71 | TTCTCGCCTT | 0.998
72 | TTCTCGGGAC | 1.03
73 | TTCTCTACAA | 1.42
74 | TTCTCTACTG | 1.02
75 | TTCTCTATCT | 0.985
76 | TTCTGAGGG | 0.921
77 | TTCTGAGTAG | 1.01
78 | TTCTGCATAG | 3.94

Row | Sequence | switch fluorescence ratio
79 | TTCTGCCTGC | 1.03
80 | TTCTGCGGT | 1.1
81 | TTCTGCGTCT | 0.984
82 | TTCTGGTTTC | 1.03
83 | TTCTTAAAAT | 0.981
84 | TTCTTAAGAT | 0.998
85 | TTCTTAAGTC | 1.05
86 | TTCTTAATCG | 0.972
87 | TTCTTAATGT | 0.948
88 | TTCTTACGGA | 0.999
89 | TTCTTCCGTC | 1.37
90 | TTCTTGCTTT | 1.01
91 | TTCTTTCAAC | 1.03
92 | TTCTTTCGGC | 1.03
93 | TTGAA | 1.02
94 | TTGAAACGTT | 0.939
95 | TTGAAAGTGT | 0.95
96 | TTGAACCAAA | 1
97 | TTGAAGCCCA | 1.15
98 | TTGAAGCTCG | 1.06
99 | TTGAAGTACG | 1.13
100 | TTGAATATTG | 0.969
101 | TTGAATTAG | 0.956
102 | TTGACAACCA | 1.12
103 | TTGACATCAT | 1.03
104 | TTGACATCGG | 1

Row | Sequence | switch fluorescence ratio
105 | TTGACCAATT | 1.03
106 | TTGACCATT | 0.983
107 | TTGACCGGTT | 1.06
108 | TTGACCTCAG | 1
109 | TTGACGCCG | 1.04
110 | TTGACGGACT | 1.11
111 | TTGACGGGAT | 1.08
112 | TTGACGTATG | 1.01
113 | TTGACTACTT | 1.03
114 | TTGACTAG | 0.93
115 | TTGACTCATA | 1.05
116 | TTGACTGAGG | 0.99
117 | TTGACTTAAC | 1.05
118 | TTGAGAAAAA | 0.988
119 | TTGAGACTTG | 1.02
120 | TTGAGCCCGT | 0.974
121 | TTGAGCTATT | 1.17
122 | TTGAGCTCCG | 1.03
123 | TTGAGGGCAC | 1.04
124 | TTGAGGTGCT | 0.96
125 | TTGAGTAGAG | 0.992
126 | TTGATACAGC | 1.08
127 | TTGATAGCAC | 1.14
128 | TTGATAGTGC | 1
129 | TTGATATCA | 0.958
130 | TTGATCATAG | 1

Row | Sequence | switch fluorescence ratio
131 | TTGATCGCAT | 1.09
132 | TTGATGAGAA | 0.99
133 | TTGATGCCGT | 1.18
134 | TTGATGTACT | 1.04
135 | TTGATTCCAG | 1.05
136 | TTGATTGTCT | 1.03
137 | TTGATTTAG | 1
138 | TTGATTTTA | 1.01
139 | TTGCACAATG | 0.983
140 | TTGCAGGATG | 0.949
141 | TTGCATAGCT | 1
142 | TTGCATGAAT | 0.98
143 | TTGCCAGCGT | 0.963
144 | TTGCCCTTGG | 1.13
145 | TTGCCGATCG | 1.04
146 | TTGCCGGAG | 1.04
147 | TTGCCTATT | 0.966
148 | TTGCCTCTAT | 0.948
149 | TTGCGAAGGC | 0.995
150 | TTGCGAAGTC | 1.03
151 | TTGCGAGGGA | 0.989
152 | TTGCGAGGTA | 0.98
153 | TTGCGCATTT | 1
154 | TTGCGCCTCT | 1.02
155 | TTGCGCTTTA | 0.987
156 | TTGCGGGTCC | 0.928

Row | Sequence | switch fluorescence ratio
157 | TTGCGGTTTT | 0.948
158 | TTGCGTACAT | 0.999
159 | TTGCGTATAA | 1.06
160 | TTGCGTCGTG | 1.01
161 | TTGCGTGC | 1.02
162 | TTGCGTGGT | 1.03
163 | TTGCTACGGG | 1
164 | TTGCTATGCA | 1.01
165 | TTGCTATGCT | 1.04
166 | TTGCTATTTG | 0.988
167 | TTGCTGCGGA | 1.02
168 | TTGCTGGCCT | 0.976
169 | TTGCTGGTTT | 1.02
170 | TTGCTTACTA | 1.03
171 | TTGCTTCCAG | 1.05
172 | TTGCTTCTAT | 0.986
173 | TTGGAAGAT | 0.982
174 | TTGGAATATG | 0.995
175 | TTGGAATTTC | 0.973
176 | TTGGACCAAA | 0.974
177 | TTGGACCACT | 1.01
178 | TTGGACCTA | 1.01
179 | TTGGACCTTT | 1.18
180 | TTGGACGTAG | 1.01
181 | TTGGACTCTC | 1
182 | TTGGAGAGCG | 0.987

Row | Sequence | switch fluorescence ratio
183 | TTGGAGGGT | 1.52
184 | TTGGAGTCAG | 1.63
185 | TTGGATAAGA | 0.935
186 | TTGGATGGAC | 1.05
187 | TTGGATTTT | 0.966
188 | TTGGCAAACC | 1.42
189 | TTGGCAATGA | 2.8
190 | TTGGCAGAAT | 1.03
191 | TTGGCAGT | 1.02
192 | TTGGCATCGT | 0.993
193 | TTGGCCAAAA | 1.01
194 | TTGGCCAATA | 0.976
195 | TTGGCGAGCG | 1.01
196 | TTGGCGATTG | 1
197 | TTGGCGCACG | 0.991
198 | TTGGCGTGTT | 1
199 | TTGGCTCCGG | 1.04
200 | TTGGCTTCGC | 1.04
201 | TTGGGAATAT | 1.02
